Hit rate of the full screen: of about 310,000 compounds, about 14,000 (4.5%) showed an effect of 50% or more. Effects have a minus sign here. Some of the results follow.
target: human ether-à-go-go-related gene (hERG) potassium channel (human, UniProt Q12809); test: primary screen, population patch clamp on CHO cells stably expressing hERG
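Also: peak tail current of the secondary pulse compared with the same well before compound.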

human ether-à-go-go-related gene (hERG) potassium channel, sequence (Q12809 whole entry, looked up): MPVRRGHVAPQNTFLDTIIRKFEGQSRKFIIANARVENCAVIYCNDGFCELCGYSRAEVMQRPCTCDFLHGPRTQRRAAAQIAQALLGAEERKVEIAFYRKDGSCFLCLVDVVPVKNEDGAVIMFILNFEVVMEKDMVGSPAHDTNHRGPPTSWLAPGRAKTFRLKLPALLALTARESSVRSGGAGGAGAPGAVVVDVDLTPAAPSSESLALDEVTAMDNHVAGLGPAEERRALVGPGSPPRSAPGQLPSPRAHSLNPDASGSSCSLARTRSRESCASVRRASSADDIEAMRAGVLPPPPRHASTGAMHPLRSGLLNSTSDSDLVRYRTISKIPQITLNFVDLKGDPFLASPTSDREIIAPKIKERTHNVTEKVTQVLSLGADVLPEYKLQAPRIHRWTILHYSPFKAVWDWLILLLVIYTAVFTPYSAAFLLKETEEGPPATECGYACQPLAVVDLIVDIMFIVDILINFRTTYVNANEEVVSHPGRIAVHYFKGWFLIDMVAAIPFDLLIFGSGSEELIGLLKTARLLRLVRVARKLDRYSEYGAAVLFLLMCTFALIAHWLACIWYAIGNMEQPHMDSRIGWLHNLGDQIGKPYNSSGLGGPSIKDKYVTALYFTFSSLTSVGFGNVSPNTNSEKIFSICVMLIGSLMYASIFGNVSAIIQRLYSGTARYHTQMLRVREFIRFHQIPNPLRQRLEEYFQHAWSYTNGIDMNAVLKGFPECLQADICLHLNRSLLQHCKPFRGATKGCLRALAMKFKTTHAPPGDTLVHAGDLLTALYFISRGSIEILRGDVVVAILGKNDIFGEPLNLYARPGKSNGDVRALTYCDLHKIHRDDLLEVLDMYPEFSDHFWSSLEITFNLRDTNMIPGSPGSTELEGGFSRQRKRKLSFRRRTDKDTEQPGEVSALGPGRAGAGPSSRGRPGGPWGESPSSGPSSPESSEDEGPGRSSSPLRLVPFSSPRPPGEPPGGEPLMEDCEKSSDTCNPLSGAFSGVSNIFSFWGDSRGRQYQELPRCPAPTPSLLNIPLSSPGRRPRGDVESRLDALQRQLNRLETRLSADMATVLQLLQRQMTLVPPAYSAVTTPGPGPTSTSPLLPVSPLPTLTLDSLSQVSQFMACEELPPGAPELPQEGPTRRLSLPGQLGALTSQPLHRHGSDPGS

| SMILES | hERG current change (%, negative = inhibition) at 10uM [%] |
| --- | --- |
| Cc1ccc(NC(=O)CN(c2ccccc2F)S(C)(=O)=O)cc1 | 5.51 |
| CSc1ccc(S(=O)(=O)NC(C)c2ccccc2)cc1 (stereo not drawn) | 8.51 |
| CCC(C)NC(=O)Nc1ccccc1F (stereo not drawn) | -24.5 |
| COc1cc(OC)c(NS(=O)(=O)c2cn(C)cn2)cc1Cl | 5.67 |
| O=C(COC(=O)c1cc(Br)ccc1O)NC1CCCCCC1 | -20 |
| CCc1nc(SCC(=O)N2c3ccccc3CC2C)c2c(C)c(C)sc2n1 (stereo not drawn) | -5.78 |
| CCOC(=O)c1ccc2c(c1)n(CC)c(/C=C/N(C)c1ccccc1)[n+]2CC.[I-] | -74.3 |
| Cc1cccc2sc(N(CCCN3CCOCC3)C(=O)CS(=O)(=O)c3ccc(F)cc3)nc12.Cl | -16.9 |
| Cc1c(C(=O)NN)nn(-c2ccc(F)cc2)c(=O)c1C#N | 15.4 |
| COc1ccc2c(c1)C(=NNc1ccc(C(=O)O)cc1)c1cc(OC)ccc1-2 | -19.6 |
| Cc1ccc(-c2[nH]ncc2/C=N/n2c(COc3ccccc3)nc3ccccc3c2=O)cc1 | -20.2 |
| O=C(c1ccc(S(=O)(=O)N2CCC(c3nc4ccccc4s3)CC2)cc1)N1CCOCC1 | 3.49 |
| NC(=O)c1c(NC(=O)c2cnccn2)sc2c1CCCC2 | 16.6 |
| CC(=O)c1cccc(NC(=O)CCNS(=O)(=O)c2cccc(C(C)=O)c2)c1 | 1.13 |
| COc1ccc(-c2csc(-c3ccc(O)cc3)n2)cc1 | 7 |
| COC(=O)c1ccc(NC(=O)COc2ccccc2OC)cc1 | 15.6 |
| Cc1ccc(S(=O)(=O)N2CCCCC2)cc1NC(=O)[C@@H]1CCCN1C(=O)c1cccs1 | -13.3 |
| CCOCC(=O)OCC(=O)NC12CC3CC(CC(C3)C1)C2 | -3.4 |
| COC(=O)C(N)Cc1ccc(Cl)cc1.Cl (stereo not drawn) | -2.67 |

| SMILES | hERG current change (%, negative = inhibition) at 10uM [%] |
| --- | --- |
| CCN(CC)CCN1C(=O)C2C(C(=O)Nc3ccc(C(C)C)cc3)C3C=CC2(O3)C1C(=O)NC1CCCCC1 (stereo not drawn) | -12 |
| ClCCOCCCl | 11.4 |
| Cc1ccccc1-c1noc(-c2ccccc2C(=O)NCc2ccco2)n1 | -3.37 |
| COc1ccccc1C(=O)NNC(=O)c1cccc(C)c1 | 20.7 |
| Cc1ccc(NC(=O)CSc2nnc(CCCCCNC(=O)OC(C)(C)C)o2)c(C)c1 | -34.2 |
| NC(=O)c1sc2nc(-c3ccccc3)c3c(c2c1N)CCCC3 | 10.2 |
| COc1ccc(CN=C(Nc2ccccc2)SC2CC(=O)N(C)C2=O)cc1 (stereo not drawn) | 4.51 |
| CCOc1ccc(Nc2nc(-c3cccnc3)cs2)cc1 | 19.6 |
| CC(=O)N1c2ccc(S(=O)(=O)N3CCC(C(=O)NC4CCCC(C)C4C)CC3)cc2CC1C (stereo not drawn) | -1.22 |
| CCOC(=O)c1cc(C#N)c(N2CCN(C(=O)c3ccccc3)CC2)nc1C(F)(F)F | -37.7 |
| COC(=O)C1=C(C)N(C)C(C)=C(C(=O)OC)C1c1ccncc1 | -1.51 |
| CCOc1ccc(N(Cc2cc3cc(C)ccc3[nH]c2=O)C(=O)COC)cc1 | 9.25 |
| COc1ccccc1N1CCN(C(=O)c2cccc(N3C(=O)NC4CC3(C)Oc3c(OC)cccc34)c2)CC1 (stereo not drawn) | 7.1 |
| CCOC(=O)N1CCC(n2c(SCC(=O)Nc3ccccc3OC)nc3ccccc3c2=O)CC1 | -66.4 |
| C(#CCN1CCOCC1)COCCCOC(c1ccccc1)c1ccccc1 | -4.82 |
| Cc1ccnc(OC(C(=O)O)C(OCc2ccccc2)(c2ccccc2)c2ccc(C(F)(F)F)cc2)n1 (stereo not drawn) | 26.4 |
| CCNC(=S)Nc1ccc(Cc2nc3ccccc3[nH]2)cc1 | 9.19 |
| N=c1c2ccccc2nnn1-c1ccc(C(F)(F)F)cc1 | 11.8 |
| COc1ccc(CCNC(=O)c2cc(-c3cc(C)c(C)cc3O)n[nH]2)cc1OC | -4.54 |

| SMILES | hERG current change (%, negative = inhibition) at 10uM [%] |
| --- | --- |
| O=C(NCCO)c1ccc2nc(-c3ccco3)c(-c3ccco3)nc2c1 | 7.6 |
| Cc1ccc(NC(=O)c2ccccc2)cc1C | 15.5 |
| COc1cc(/C=C/C(=O)OCc2c(C)noc2C)ccc1OC(F)F | -10.7 |
| CCCN(C(=O)Cn1ncc2c(=O)oc3ccccc3c21)c1cccc(C)c1 | -54.3 |
| Cc1oc(-c2ccccc2F)nc1CS(=O)CC(=O)NCc1ccc(F)cc1 (stereo not drawn) | -12.6 |
| Clc1ccccc1OCc1nn[nH]n1 | 16.3 |
| CCNC(=O)N(C(=O)NCC)n1c(C)nnc1C | 9.19 |
| COc1ccccc1CNC(=O)CN1C(=O)NC(C)(c2ccc(C(C)(C)C)cc2)C1=O (stereo not drawn) | 20.5 |
| CC1(C)Cc2ccccc2C(/C(=N/O)C(N)=O)=N1 | -14.4 |
| N#Cc1c(/N=C/c2ccc(O)cc2O)sc2c1C1CCN2CC1 | -12.9 |
| COc1ccccc1C1(O)C(=O)Nc2ccccc21 (stereo not drawn) | 23.6 |
| CCS(=O)(=O)NCCc1ccc(OC)c(OC)c1 | 6.13 |
| CCOC(=O)c1cc(NC(=O)c2cccnc2)ccc1N1CCOCC1 | 9.6 |
| Cc1ccc(S(=O)(=O)/N=C(/c2ccccc2)N2CCOCC2)c(C)c1 | 11.1 |
| COCCNc1nc2c(c(=O)n(C)c(=O)n2C)n1Cc1cccc(C)c1 | -1.87 |
| Cn1nc(CC(=O)Nc2ncc(Br)s2)c2ccccc2c1=O | 11.4 |
| N#CC1(Cc2ccc(Cl)cc2)c2ccccc2C=CN1C(=O)c1ccccc1 (stereo not drawn) | 6.67 |
| C[N+]1(CC(=O)Nc2ccccc2Cl)CCN(C(=O)c2cccs2)CC1.[Cl-] | 4.19 |
| O=C(Nc1cccc(C(=O)Nc2ccc(Cl)cn2)c1)c1ccccc1 | 11.3 |

From article PMC4336329 (PLoS ONE, 2015)
